{"source": "patent US5968751A", "about": "“Method for detecting the presence of protein C antibody in a fluid sample” (The Scripps Research Institute, priority 1997, dated 1999)", "key": {"[1]": {"molecular_target": "thrombin (Homo sapiens, UniProt P00734)", "assay": "thrombin amidolytic activity towards chromogenic substrates", "type": "biochemical"}, "[2]": {"molecular_target": "APC (Homo sapiens, UniProt P04070)", "sequence (P12259 29-737 partner limits assumed)": "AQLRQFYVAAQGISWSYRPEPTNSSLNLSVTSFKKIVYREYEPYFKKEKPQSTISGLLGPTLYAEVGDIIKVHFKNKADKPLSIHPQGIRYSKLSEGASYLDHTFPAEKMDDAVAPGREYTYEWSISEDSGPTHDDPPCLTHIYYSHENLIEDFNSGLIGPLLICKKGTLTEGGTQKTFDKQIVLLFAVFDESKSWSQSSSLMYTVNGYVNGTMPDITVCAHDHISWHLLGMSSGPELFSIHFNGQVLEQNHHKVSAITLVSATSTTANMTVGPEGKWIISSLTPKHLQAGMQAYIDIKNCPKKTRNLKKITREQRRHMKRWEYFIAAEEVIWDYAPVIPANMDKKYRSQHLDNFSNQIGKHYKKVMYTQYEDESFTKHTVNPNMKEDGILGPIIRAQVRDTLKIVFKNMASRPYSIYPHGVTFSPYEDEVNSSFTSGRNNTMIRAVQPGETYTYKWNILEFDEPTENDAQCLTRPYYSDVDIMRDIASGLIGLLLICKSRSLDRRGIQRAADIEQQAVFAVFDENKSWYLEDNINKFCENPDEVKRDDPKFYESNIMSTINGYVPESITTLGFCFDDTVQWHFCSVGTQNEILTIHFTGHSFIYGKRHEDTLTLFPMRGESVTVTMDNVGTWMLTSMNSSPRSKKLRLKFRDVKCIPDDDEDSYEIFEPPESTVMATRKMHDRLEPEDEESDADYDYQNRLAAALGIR", "sequence (P12259 1574-2224 partner limits assumed)": "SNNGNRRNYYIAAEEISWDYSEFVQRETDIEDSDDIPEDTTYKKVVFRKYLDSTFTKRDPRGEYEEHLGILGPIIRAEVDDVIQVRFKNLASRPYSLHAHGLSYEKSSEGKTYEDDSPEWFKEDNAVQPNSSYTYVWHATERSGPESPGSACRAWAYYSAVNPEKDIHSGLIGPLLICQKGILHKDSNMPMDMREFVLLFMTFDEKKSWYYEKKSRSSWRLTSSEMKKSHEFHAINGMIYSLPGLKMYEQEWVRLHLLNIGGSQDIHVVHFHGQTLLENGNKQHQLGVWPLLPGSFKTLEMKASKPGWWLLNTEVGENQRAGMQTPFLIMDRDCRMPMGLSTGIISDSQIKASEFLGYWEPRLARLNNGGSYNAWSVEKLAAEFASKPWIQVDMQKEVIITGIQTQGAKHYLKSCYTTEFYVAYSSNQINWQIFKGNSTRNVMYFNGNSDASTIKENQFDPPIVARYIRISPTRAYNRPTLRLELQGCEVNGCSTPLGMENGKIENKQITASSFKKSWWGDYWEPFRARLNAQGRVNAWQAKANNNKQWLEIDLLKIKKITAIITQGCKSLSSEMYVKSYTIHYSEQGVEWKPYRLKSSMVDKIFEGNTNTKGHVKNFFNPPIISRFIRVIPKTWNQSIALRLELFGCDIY", "sequence (P04070 43-197 limits assumed)": "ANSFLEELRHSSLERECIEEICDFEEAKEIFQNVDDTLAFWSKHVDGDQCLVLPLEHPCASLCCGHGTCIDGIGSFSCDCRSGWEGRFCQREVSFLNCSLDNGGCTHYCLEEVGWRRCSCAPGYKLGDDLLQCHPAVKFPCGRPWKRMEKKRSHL", "sequence (P04070 212-450 limits assumed)": "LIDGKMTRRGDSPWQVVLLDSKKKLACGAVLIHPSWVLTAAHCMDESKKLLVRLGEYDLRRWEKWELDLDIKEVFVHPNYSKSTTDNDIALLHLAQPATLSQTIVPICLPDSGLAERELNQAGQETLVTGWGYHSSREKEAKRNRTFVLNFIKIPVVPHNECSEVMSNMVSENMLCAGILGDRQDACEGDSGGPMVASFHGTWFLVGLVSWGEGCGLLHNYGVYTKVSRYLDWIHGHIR", "assay": "APC-catalyzed inactivation of Factor Va, residual Va by prothrombinase assay", "type": "biochemical", "design": "Protein C consists of a 155 amino acid residue light chain and a 262 amino acid residue heavy chain; from tissue; Factor Va a gift (Tans and Rosing, Univ. of Limburg)", "description": "The APC catalyzed inactivation of Factor Va assays were performed in 96-well flat bottom ELISA plates (Stockwell Scientific, Walnut, Calif.). The reactions were performed either in the presence or absence of phospholipid vesicles to determine if either PC311-325 or PC142-155 inhibited APC anticoagulant activity by inhibiting the binding of APC or its substrate to phospholipids or if it was independent of phospholipid surfaces. This determination was relevant in light of reports that the assembly of APC with its substrates Va and VIIIa on the phospholipid surface appeared to be mediated mainly by the Gla-domain of APC in the presence of calcium which was crucial for exerting significant anticoagulant activity. [Sugo et al., J. Biol. Chem., 260:10453-10457 (1985); […] et al., J. Biol. Chem., 261:9684-9693 (1986); Solymoss et al., J. Biol. Chem., 263:14884-14890 (1988)]. For the preparation of phospholipid residues for use in the assay bovine brain phosphatidylserine in chloroform […]/methanol (CH3 OH) and soybean phosphatidylcholine (Type III-S, CCl4 solution) were purchased from Sigma and were reported to be at least 98% homogeneous (supplier's estimates). […] Factor Va was determined via its cofactor activity in the activation of prothrombin by Factor Xa. […] The molar concentration of Factor Xa was determined by active site titration as described by Chase et al., Biochem. Biophys. […]"}}, "note": "pIC50: −log10 of the molar value. Not every detail of the peptide structures is certain; ends, links or a residue may be inferred. For part of these data: The name of at least one read-out is uncertain."}
{"compound": "CSCC[C@H](NC(=O)[C@H](CCCNC(=N)N)NC(=O)[C@H](CCCCN)NC(=O)[C@H](Cc1c[nH]c2ccccc12)NC(=O)[C@@H]1CCCN1C(=O)[C@H](CCCNC(=N)N)NC(=O)CN)C(=O)N[C@@H](CCC(=O)O)C(=O)N[C@@H](CCCCN)C(=O)N[C@@H](CCCCN)C(=O)N[C@@H](CCCNC(=N)N)C(=O)N[C@@H](CO)C(=O)N[C@@H](Cc1c[nH]cn1)C(=O)N[C@@H](CC(C)C)C(=O)N[C@@H](CS)C(N)=O", "note": "[PC142-155, Gly-Arg-Pro-Trp-Lys-Arg-Met-Glu-Lys-Lys-Arg-Ser-His-Leu]", "values": [{"measurement": "effect on thrombin amidolytic activity towards chromogenic substrates", "setting": "[1]", "result": "no significant effect"}, {"measurement": "rate of Factor Va inactivation (%Vi /min)", "setting": "[2]; absence of phospholipids, 5 nM APC, 40 nM Va, 500 μM PC142-155", "result": -0.5, "unit": "% Vi /min"}, {"measurement": "pIC50", "setting": "[2]; presence of phospholipid vesicles, read-out: half-maximal inhibition of the APC-catalyzed inactivation of Factor Va", "result": 4.30}]}
